The results in this text go back to the supplement of paper PMC4967469.

Compound in the experiment: Cn1c(=O)n(-c2ccc(C(C)(C)C#N)cc2)c2c3cc(-c4cnc5ccccc5c4)ccc3ncc21 [NVP-BEZ235]
As to the kind of experiment: Viability of human cancer cell lines after 72 h of drug (GDSC screen). As for the experimental part:
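Human cancer cell lines in 384-well plates, medium with 10% serum, drug for 72 h over a 256-fold dose range (nine 2-fold or five 4-fold steps up to the top dose). Adherent lines were fixed and stained with the nucleic acid dye Syto60, suspension lines read with resazurin; signal relative to control wells, capped at 0 and 100%. One two-parameter sigmoid per drug and line, fitted in a mixed model over all curves with the slope shared within a line.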

The IC50 comes from the fitted curve, where viability falls to half of the control; where the fit passes the top or lowest dose, that dose stands as a limit. AUC sums up the same curve from the lowest dose to the 256-fold higher top dose; it is 1 without any effect and falls as sensitivity rises. A value given as a limit tells only on which side of the number the result lay.

As for “OVMIU (ovary, adherent, top dose 0.25 µM)”, the AUC was 0.932 and the IC50 – broadly, the midpoint of a concentration-inhibition curve – was > 0.25 µM.
As for “OVTOKO (ovary, adherent, top dose 0.25 µM)”, the AUC amounted to 0.561 and the IC50 was 0.0239 µM.
The like results for “P12-ICHIKAWA (T-cell lymphoblastic leukaemia, suspension, top dose 0.25 µM)” were, in that order, 0.88 and 0.161 µM.
“P30-OHK (lymphoblastic leukaemia, suspension, top dose 0.25 µM)”: the AUC stood at 0.669 and the IC50 was determined as 0.0421 µM.
The like results for “P31-FUJ (acute myeloid leukaemia, suspension, top dose 0.25 µM)” were, in that order, 0.921 and 0.225 µM.
The like results for “P32-ISH (Burkitt lymphoma, suspension, top dose 0.25 µM)” were, in that order, 0.793 and 0.0843 µM.
On to “PA-1 (ovary, adherent, top dose 0.25 µM)”, for which the AUC is 0.669 and the IC50 was found to be 0.0411 µM.
In the case of “PA-TU-8902 (pancreas, adherent, top dose 0.25 µM)”, the AUC was 0.616 and the IC50 stood at 0.0345 µM.
The corresponding values for “PANC-02-03 (pancreas, adherent, top dose 0.25 µM)” are 0.844 and 0.234 µM.
For “PANC-03-27 (pancreas, adherent, top dose 0.25 µM)”, the AUC turned out to be 0.748.
With “PANC-04-03 (pancreas, adherent, top dose 0.25 µM)”, the AUC was 0.726 and the IC50 is 0.104 µM.
For “PANC-10-05 (pancreas, adherent, top dose 0.25 µM)”, the AUC stood at 0.737 and the IC50 was 0.0918 µM.
As for “PC-3 [JPC-3] (lung adenocarcinoma, adherent, top dose 0.25 µM)”, the AUC stood at 0.885 and the IC50 is > 0.25 µM.
The corresponding values for “PC-14 (lung adenocarcinoma, adherent, top dose 0.25 µM)” are 0.687 and 0.0487 µM.
“PCI-4B (head and neck, adherent, top dose 0.25 µM)”: the AUC was 0.474 and the IC50 amounted to 0.0133 µM.
The like results for “PCI-6A (head and neck, adherent, top dose 0.25 µM)” were, in that order, 0.7 and 0.0561 µM.
The like results for “PCI-15A (head and neck, adherent, top dose 0.25 µM)” were, in that order, 0.987 and > 0.25 µM.
Take “PCI-30 (head and neck, adherent, top dose 0.25 µM)”: the AUC turned out to be 0.638 and the IC50 was found to be 0.041 µM.
Take “PE/CA-PJ15 (head and neck, adherent, top dose 0.25 µM)”: the AUC amounted to 0.612 and the IC50 was 0.0326 µM.
On to “PEO1 (ovary, adherent, top dose 0.25 µM)”, for which the AUC stood at 0.797 and the IC50 was 0.124 µM.
The like results for “PF-382 (T-cell lymphoblastic leukaemia, suspension, top dose 0.25 µM)” were, in that order, 0.784 and 0.0923 µM.
The like results for “PFSK-1 (medulloblastoma, adherent, top dose 0.25 µM)” were, in that order, 0.663 and 0.0459 µM.
The like results for “PL4 (pancreas, adherent, top dose 0.25 µM)” were, in that order, 0.719 and 0.0666 µM.
For “PSN1 (pancreas, adherent, top dose 0.25 µM)”, the AUC was determined as 0.67 and the IC50 was determined as 0.0426 µM.
With “PWR-1E (prostate, adherent, top dose 0.25 µM)”, the AUC was found to be 0.845 and the IC50 was 0.18 µM.
The corresponding values for “QGP-1 (pancreas, adherent, top dose 0.25 µM)” are 0.947 and > 0.25 µM.
Take “QIMR-WIL (acute myeloid leukaemia, suspension, top dose 0.25 µM)”: the AUC was determined as 0.801 and the concentration for half-maximal inhibition (IC50) stood at 0.118 µM.
The corresponding values for “RC-K8 (B-cell lymphoma, suspension, top dose 0.25 µM)” are 0.8 and 0.103 µM.
“RCC10RGB (kidney, adherent, top dose 0.25 µM)”: the AUC was found to be 0.773.
On to “RCC-AB (kidney, adherent, top dose 0.25 µM)”, for which the AUC came to 0.481 and the IC50 was determined as 0.0137 µM.
“RCC-ER (kidney, adherent, top dose 0.25 µM)”: the AUC was 0.77 and the IC50 came to 0.106 µM.
The corresponding values for “RCC-FG2 (kidney, adherent, top dose 0.25 µM)” are 0.567 and 0.0251 µM.
The like results for “RCC-JF (kidney, adherent, top dose 0.25 µM)” were, in that order, 0.488 and 0.0145 µM.
In the case of “RCC-JW (kidney, adherent, top dose 0.25 µM)”, the AUC was 0.336 and the IC50 stood at 0.0054 µM.
“RCC-MF (kidney, adherent, top dose 0.25 µM)”: the AUC was found to be 0.494 and the 50% inhibitory concentration (IC50) stood at 0.015 µM.
The corresponding values for “RCH-ACV (B-cell leukaemia, suspension, top dose 0.25 µM)” are 0.544 and 0.0201 µM.
With “RCM-1 (large intestine, adherent, top dose 0.25 µM)”, the AUC stood at 0.895 and the concentration for half-maximal inhibition (IC50) was > 0.25 µM.
Regarding “REH (B-cell leukaemia, suspension, top dose 0.25 µM)”, the AUC was determined as 0.733 and the IC50 was determined as 0.0697 µM.
With “RERF-LC-KJ (lung adenocarcinoma, adherent, top dose 0.25 µM)”, the AUC came to 0.742 and the IC50 is 0.0792 µM.
The corresponding values for “RERF-LC-MS (lung adenocarcinoma, adherent, top dose 0.25 µM)” are 0.828 and 0.159 µM.
The like results for “RERF-LC-Sq1 (lung squamous cell carcinoma, adherent, top dose 0.25 µM)” were, in that order, 0.739 and 0.107 µM.
The corresponding values for “RF-48 (stomach, adherent, top dose 0.25 µM)” are 0.778 and 0.115 µM.
For “RH-1 (rhabdomyosarcoma, adherent, top dose 0.25 µM)”, the AUC is 0.699 and the IC50 was 0.0509 µM.
The like results for “RH-18 (rhabdomyosarcoma, adherent, top dose 0.25 µM)” were, in that order, 0.848 and 0.229 µM.
The corresponding values for “RH-41 (rhabdomyosarcoma, adherent, top dose 2 µM)” are 0.183 and 0.0175 µM.
As to RKN (ovary, adherent, top dose 0.25 µM), the AUC turned out to be 0.558 and the IC50 stood at 0.0226 µM.
The corresponding values for “RKO (large intestine, adherent, top dose 0.25 µM)” are 0.641 and 0.0373 µM.
On to “RL (B-cell lymphoma, suspension, top dose 0.25 µM)”, for which the AUC was 0.574 and the 50% inhibitory concentration (IC50) worked out at 0.0245 µM.
The corresponding values for “RO82-W-1 (thyroid, adherent, top dose 0.25 µM)” are 0.675 and 0.0557 µM.
